Reference: PMC4336329 (PLoS ONE, 2015)
About 2,200 (0.71%) of roughly 310,000 compounds showed an effect of 50% or more. Effects have a minus sign here. The list shows a part of the results.

target: human ether-à-go-go-related gene (hERG) potassium channel (human, UniProt Q12809); assay: primary screen, population patch clamp on CHO cells stably expressing hERG
Sequence (Q12809 whole entry, looked up): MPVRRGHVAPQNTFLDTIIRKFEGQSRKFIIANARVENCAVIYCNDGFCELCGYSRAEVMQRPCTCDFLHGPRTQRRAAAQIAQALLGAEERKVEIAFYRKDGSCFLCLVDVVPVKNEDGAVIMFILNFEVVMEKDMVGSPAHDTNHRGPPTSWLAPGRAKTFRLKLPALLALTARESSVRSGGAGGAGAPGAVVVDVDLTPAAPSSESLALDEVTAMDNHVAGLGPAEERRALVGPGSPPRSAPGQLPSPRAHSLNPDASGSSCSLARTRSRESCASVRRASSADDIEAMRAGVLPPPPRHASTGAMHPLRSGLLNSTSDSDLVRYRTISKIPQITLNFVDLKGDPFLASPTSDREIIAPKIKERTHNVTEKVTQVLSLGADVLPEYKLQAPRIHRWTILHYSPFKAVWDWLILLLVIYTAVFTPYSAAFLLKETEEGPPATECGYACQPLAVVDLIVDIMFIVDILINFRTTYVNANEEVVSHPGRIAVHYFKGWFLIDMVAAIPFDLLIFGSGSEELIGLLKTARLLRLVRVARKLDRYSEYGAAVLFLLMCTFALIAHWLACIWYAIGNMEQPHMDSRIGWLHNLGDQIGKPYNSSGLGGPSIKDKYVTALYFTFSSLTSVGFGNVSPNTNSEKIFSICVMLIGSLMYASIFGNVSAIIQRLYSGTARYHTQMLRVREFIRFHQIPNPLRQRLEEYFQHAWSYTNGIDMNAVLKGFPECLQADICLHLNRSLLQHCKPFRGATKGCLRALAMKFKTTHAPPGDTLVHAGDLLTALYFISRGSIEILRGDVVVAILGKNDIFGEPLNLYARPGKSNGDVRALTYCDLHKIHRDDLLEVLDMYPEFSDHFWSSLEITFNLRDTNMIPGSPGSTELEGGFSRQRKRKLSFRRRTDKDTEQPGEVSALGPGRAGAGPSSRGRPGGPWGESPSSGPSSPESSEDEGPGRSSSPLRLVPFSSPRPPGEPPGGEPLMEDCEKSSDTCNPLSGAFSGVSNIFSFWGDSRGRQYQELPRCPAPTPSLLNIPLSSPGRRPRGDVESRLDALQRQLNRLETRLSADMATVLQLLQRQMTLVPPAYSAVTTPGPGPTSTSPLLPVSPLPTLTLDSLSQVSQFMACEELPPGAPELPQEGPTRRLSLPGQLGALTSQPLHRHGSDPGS

SMILES	hERG current change (%, negative = inhibition) at 1uM
NC(=O)C1CCN(C2CC(=O)N(c3ccc(F)c(Cl)c3)C2=O)CC1 (stereo not shown)	1.29%
C=CCn1c(SCC(=O)NCc2ccco2)nc2sc(C)c(C)c2c1=O	12.1%
N#CCC(=O)N1CCCCCC1	-5.22%
Cc1cc(OCC(=O)N(C)c2c(N)n(Cc3ccccc3)c(=O)[nH]c2=O)c(C(C)C)cc1Cl	6.68%
COc1ccccc1C(=O)NNC(=O)c1cccc(F)c1	9.95%
CCOC(=O)Cc1csc(NS(=O)(=O)c2ccc3ccccc3c2)n1	59%
O=C(Cn1cnc([N+](=O)[O-])n1)c1ccccc1	16.3%
COc1cc(OC)cc(C(=O)Nc2ccc(S(=O)(=O)Nc3nc(C)cc(C)n3)cc2)c1	18.6%
O=C(Cn1nnc(-c2ccccc2)n1)N=Nc1c(O)[nH]c2ccccc12	18.9%
O=C(NCc1ccccc1CN1CCCC1)c1cc2ccccc2o1	-31.4%
O=C(Nc1ccc(Cl)cc1)Nc1nc(-c2sccc2Br)cs1	6.5%
Cc1ccc(NC(=O)CSc2nnc(C)n2-c2ccccc2)cc1	4.28%
COc1ccc(OC)c(/C=N/NC(=O)C(=O)N/N=C/c2cc(OC)ccc2OC)c1	18%
COc1ccc(CNC(=O)CCS(=O)(=O)c2cccc3nonc23)cc1	4.85%
O=C1OC(c2cccc([N+](=O)[O-])c2)C2(CCCC2)C(=O)C12CCCCC2 (stereo not shown)	-0.72%
CCOc1ccc(N(C)S(=O)(=O)c2ccc3[nH]cc(C(=O)NCCOC)c(=O)c3c2)cc1	8.46%
Cc1ccc(-c2ccc(CCC(=O)O)n2-c2cccc(O)c2)cc1	12.7%
CS(=O)(=O)N(CC(=O)O)Cc1cccc(CN(CC(=O)O)S(C)(=O)=O)c1	10.1%
Cc1ccc(CN(C)C(=O)c2c(C)nn(-c3ccccc3)c2C)cc1	10.9%
C=C1N2CCC(CC2)C1(O)c1ccc(C)cc1.Cl (stereo not shown)	18.7%
N/C(=N\[N+](=O)[O-])N1CCN(C(=O)OC2CCCC2)CC1	14.9%
CCCCN(C)CCCNC(=O)c1ccc2c(c1)NC(=O)C(N1CCOCC1)S2 (stereo not shown)	14.5%

SMILES	hERG current change (%, negative = inhibition) at 1uM
CC[C@@]12C(=O)N(c3ccc(C)cc3)C(=O)N1[C@H](c1ccc(OC)cc1)[C@@H]1C(=O)N(C(C)(C)C)C(=O)[C@@H]12	9.78%
CCOc1cc2c(cc1OCC)-n1cccc1C(c1cccc(F)c1F)NC2.Cl (stereo not shown)	8.61%
Cc1ccc(S(=O)(=O)Nc2cccc(C(=O)N3CCC(C(N)=O)CC3)c2)cc1	6.61%
CC1CCN(Cc2c(C(=O)N/N=C/c3ccc(C(F)(F)F)cc3)nnn2-c2nonc2N)CC1	9.75%
CCOC(=O)CC(=O)CSc1nc(-c2ccccc2)cc(-c2ccc(Cl)cc2)c1C#N	9.5%
COc1cccc(C(=O)NCC(=O)N/N=C/c2ccc3c(c2)OCO3)c1	18%
O=C(NCCC1CCCCN1S(=O)(=O)c1ccc(Cl)cc1)C(=O)NCc1ccco1 (stereo not shown)	4.17%
Cc1ccc2c(c1N)C(=O)c1ccccc1C2=O	13.6%
CCc1ccc(-c2nnn(CC(=O)N(C3CCCC3)C3CCS(=O)(=O)C3)n2)cc1 (stereo not shown)	10.5%
CCCc1ccc(C(=O)NNc2cccc(C)c2)cc1	11.8%
Cc1ccc(NC(=O)CNc2cccc(S(=O)(=O)N3CCCC3)c2)cc1F	15.5%
O=C(CN(c1ccc(F)cc1)S(=O)(=O)c1ccc2c(c1)OCCO2)NCc1ccccn1	4.73%
CCC1(c2ccc(Cl)cc2)NC(=O)N(Cc2ccc(C(=O)OC)cc2)C1=O (stereo not shown)	5.45%
CC1CCN(C(=O)c2cc(-c3ccccc3O)on2)CC1	15%
O=C(NCc1ccccn1)C1CC(c2ccc(Cl)c(Cl)c2)=NO1 (stereo not shown)	11.8%
Cc1ccccc1C1C(C#N)=C2N=C(N)c3c(sc4c3CCCCC4)N2C2=C1C(=O)CCC2 (stereo not shown)	3.55%
CCC(C)NC(=O)Cn1cc(S(=O)(=O)N2CCN(c3ccccc3F)CC2)c2ccccc2c1=O (stereo not shown)	14.4%
Cc1ccc(C)c(NC(=O)CN2C(=O)c3ccccc3C2=O)c1	12.8%
Cc1ccc(Nc2nc(-c3sc(NC(=O)c4ccc([N+](=O)[O-])cc4)nc3C)cs2)cc1	15.9%
CCC1=Nc2cc(C(=O)NCCCN3CCN(C)CC3)ccc2Sc2ccccc21	17.8%
O=C(Nc1ccc(-n2ccc(C(F)(F)F)n2)cc1)Nc1cccc(Cl)c1	11.3%
